We go through 109 sequences from the supplement of paper PMC3334620.

Whole data set: some 33,000 sequences, median “E-score (-0.5 to 0.5)” near -0.035, cut for the highest 2% near 0.35. The list shows a part of the results.

This test deals with T1, Pdr3 (UniProt P33200).
T1 sequence: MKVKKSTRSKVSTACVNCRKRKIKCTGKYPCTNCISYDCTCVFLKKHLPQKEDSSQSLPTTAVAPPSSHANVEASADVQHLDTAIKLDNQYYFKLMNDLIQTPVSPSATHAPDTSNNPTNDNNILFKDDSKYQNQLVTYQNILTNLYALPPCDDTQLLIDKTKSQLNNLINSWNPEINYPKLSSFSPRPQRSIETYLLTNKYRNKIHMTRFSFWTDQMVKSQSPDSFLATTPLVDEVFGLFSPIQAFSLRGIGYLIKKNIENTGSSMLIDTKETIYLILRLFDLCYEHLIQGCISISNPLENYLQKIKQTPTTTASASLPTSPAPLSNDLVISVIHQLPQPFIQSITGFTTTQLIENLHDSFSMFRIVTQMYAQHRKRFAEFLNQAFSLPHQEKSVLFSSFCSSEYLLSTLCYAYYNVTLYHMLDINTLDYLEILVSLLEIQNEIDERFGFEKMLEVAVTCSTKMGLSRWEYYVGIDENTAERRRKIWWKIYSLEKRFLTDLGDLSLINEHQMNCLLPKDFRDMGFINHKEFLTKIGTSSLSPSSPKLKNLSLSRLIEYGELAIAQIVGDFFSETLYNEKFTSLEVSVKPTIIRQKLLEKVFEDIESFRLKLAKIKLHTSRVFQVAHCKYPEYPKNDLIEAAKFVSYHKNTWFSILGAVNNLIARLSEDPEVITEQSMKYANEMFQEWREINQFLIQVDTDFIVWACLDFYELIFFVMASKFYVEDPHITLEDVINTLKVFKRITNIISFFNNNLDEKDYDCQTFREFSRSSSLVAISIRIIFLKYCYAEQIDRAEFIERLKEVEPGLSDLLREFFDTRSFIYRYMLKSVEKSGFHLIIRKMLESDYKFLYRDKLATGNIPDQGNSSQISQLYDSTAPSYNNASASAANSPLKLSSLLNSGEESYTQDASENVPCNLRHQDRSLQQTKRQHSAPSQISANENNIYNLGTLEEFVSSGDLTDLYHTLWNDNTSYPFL
Nature of the test: PBM E-score (8-mer binding enrichment) (E-score (-0.5 to 0.5)); higher = stronger / more preferred TF binding; most listed sequences are background and not binding sites. The conditions noted are these: protein concentration: 200 nM; construct: GST-full length. The essentials:
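GST-tagged yeast TFs (full-length or DNA-binding domain) were made by PURExpress in vitro transcription/translation and applied at about 100-200 nM to universal all-10-mer Agilent arrays. The arrays were made double-stranded by primer extension, on fresh or once-stripped slides. Bound protein was detected with fluorescent anti-GST, and scans were normalised with masliner. Each ungapped eight-base word, pooled with its reverse complement, received an E-score (modified Wilcoxon-Mann-Whitney statistic) from the Universal PBM Analysis Suite.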
GTGCCGCA: the “PBM E-score” value is 0.0517.

For TCATTCCA, the “PBM E-score” value was 0.14.

As for TCGAATCA, the “PBM E-score” value is -0.0653.

As to GCCCACAA, the “PBM E-score” value is -0.177.

In the case of ACGGCACC, the “PBM E-score” value is -0.0873.

Regarding ACTCCTTA, the “PBM E-score” value was -0.185.

For CATTCCTA, the “PBM E-score” value is -0.14.

As to AAGTATAA, the “PBM E-score” value was found to be 0.0419.

With GTTTGCAA, the “PBM E-score” value was -0.0396.

For AGGTTGTC, the “PBM E-score” value was -0.155.

On to CGACGCTC, for which the “PBM E-score” value was found to be 0.0499.

For ATATTTTC, the “PBM E-score” value worked out at 0.233.

On to ACGCTGTC, for which the “PBM E-score” value is -0.0291.

In the case of AAGGCCTC, the “PBM E-score” value was -0.161.

For the sequence ACTCAAGA, the “PBM E-score” value was -0.2.

Consider CTGCACAC, for which the “PBM E-score” value is -0.165.

Turning to CTGGGCCC, the “PBM E-score” value was -0.117.

In the case of CTACGAGC, the “PBM E-score” value was -0.185.

For CCTAGTCG, the “PBM E-score” value is -0.23.

As to AGATAGCG, the “PBM E-score” value is -0.177.

As to AACGACCG, the “PBM E-score” value was -0.146.

AGTAAATA: the “PBM E-score” value was 0.0827.

Turning to ATCTCTGC, the “PBM E-score” value is -0.0587.

In the case of ATGGCTTG, the “PBM E-score” value is -0.196.

As for ATTTACTG, the “PBM E-score” value was 0.0661.

As to AACCTGTG, the “PBM E-score” value was -0.256.

For the sequence AATTGGGA, the “PBM E-score” value worked out at 0.057.

For the sequence TAACGCTA, the “PBM E-score” value was -0.172.

Turning to AACAATGT, the “PBM E-score” value was -0.135.

As for CGATTCGA, the “PBM E-score” value was 0.143.

On to CCGCGCAA, for which the “PBM E-score” value was found to be 0.192.

Consider AATGCCCC, for which the “PBM E-score” value came out at 0.0531.

For ACACTAGT, the “PBM E-score” value was -0.167.

For the sequence GATAGCTA, the “PBM E-score” value is -0.00062.

In the case of CGACTGAC, the “PBM E-score” value is -0.188.

GTACCAGA: the “PBM E-score” value is -0.21.

In the case of CAAATATC, the “PBM E-score” value was found to be 0.184.

On to CCCGTACA, for which the “PBM E-score” value was -0.0847.

Consider ACGCTTCT, for which the “PBM E-score” value was -0.145.

With GAGCTGGA, the “PBM E-score” value was -0.0583.

GCCAACAC: the “PBM E-score” value amounted to 0.0219.

Turning to GTGCAGTA, the “PBM E-score” value was -0.0405.

For CAATCTTC, the “PBM E-score” value is 0.0318.

Take ATCTCGTG: the “PBM E-score” value was -0.0801.

ATTCCCCC: the “PBM E-score” value was 0.0243.

As for TGGTTTAA, the “PBM E-score” value was -0.163.

Consider ATACGCAG, for which the “PBM E-score” value is -0.25.

In the case of CACGCCCC, the “PBM E-score” value was 0.116.

Turning to ATCACTCC, the “PBM E-score” value amounted to 0.0733.

With ATACATCC, the “PBM E-score” value amounted to 0.119.

With CAATTTCC, the “PBM E-score” value was 0.262.

For GATGCAGC, the “PBM E-score” value is -0.017.

As to CAACTAGG, the “PBM E-score” value is -0.159.

AGCGCTGG: the “PBM E-score” value was -0.0149.

As to AGGCCGAT, the “PBM E-score” value amounted to 0.141.

Turning to AACTTCCA, the “PBM E-score” value was determined as 0.0852.

In the case of AATCCATT, the “PBM E-score” value came to 0.101.

Take CGGGAGCA: the “PBM E-score” value was 0.192.

As to CACTTTGC, the “PBM E-score” value was -0.103.

Take GGTGCAGA: the “PBM E-score” value is -0.13.

With ATGAACCC, the “PBM E-score” value turned out to be 0.102.

TATGTCCA: the “PBM E-score” value is -0.0466.

For GCAGCAAC, the “PBM E-score” value came to 0.104.

Take AAGCTAAC: the “PBM E-score” value was -0.174.

Regarding ATATTGAG, the “PBM E-score” value amounted to 0.0711.

Turning to CTCCCTGA, the “PBM E-score” value was -0.137.

CACCAAAG: the “PBM E-score” value is 0.083.

As for CTACCTGA, the “PBM E-score” value was -0.202.

As to CCGTCTTC, the “PBM E-score” value is 0.204.

As to AATTGCCT, the “PBM E-score” value is 0.0195.

For AGACCCAT, the “PBM E-score” value is -0.0251.

For the sequence ACGGAGAA, the “PBM E-score” value was 0.265.

Consider AAATAGTC, for which the “PBM E-score” value is 0.0898.

For the sequence GAGAAGGC, the “PBM E-score” value was -0.183.

As for CGAGGTGA, the “PBM E-score” value came out at 0.13.

As for CCATGGGG, the “PBM E-score” value is 0.0779.

In the case of CACTCCCC, the “PBM E-score” value stood at 0.225.

Consider GGAATCTA, for which the “PBM E-score” value was 0.231.

Take CACTCTGG: the “PBM E-score” value was -0.174.

On to AGCCAATA, for which the “PBM E-score” value is -0.223.

In the case of CACCACCC, the “PBM E-score” value is 0.0174.

In the case of CAACCGCA, the “PBM E-score” value amounted to 0.0919.

In the case of ATGATCTC, the “PBM E-score” value was determined as 0.0123.

Take CGTACTTA: the “PBM E-score” value was -0.0288.

In the case of AACTTGGG, the “PBM E-score” value was determined as 0.137.

GACCGCCA: the “PBM E-score” value is -0.00178.

Take CGTGAGTA: the “PBM E-score” value amounted to 0.014.

Turning to AAGCTCGC, the “PBM E-score” value is -0.0095.

Regarding AGGATCGG, the “PBM E-score” value is 0.0965.

As for AGACCCGC, the “PBM E-score” value is 0.153.

Turning to GATCAGCA, the “PBM E-score” value was found to be 0.0224.

Take TAAATCAA: the “PBM E-score” value was -0.0605.

AGACCCCA: the “PBM E-score” value was -0.0233.

Turning to ACCGGAGG, the “PBM E-score” value is 0.281.

As for ATGAGACG, the “PBM E-score” value is -0.119.

Consider TGAGCCCA, for which the “PBM E-score” value is -0.209.

ACAGAGGA: the “PBM E-score” value was -0.0781.

ACGGATCG: the “PBM E-score” value was 0.236.

On to CATATTGG, for which the “PBM E-score” value is -0.263.

Consider CGATAGAA, for which the “PBM E-score” value is -0.00477.

For CTTGGCGC, the “PBM E-score” value was determined as 0.123.

With GAAATCAA, the “PBM E-score” value amounted to 0.1.

With CAGTTCGC, the “PBM E-score” value stood at 0.0332.

Turning to AATAAAGC, the “PBM E-score” value was -0.2.

On to CACTGTAA, for which the “PBM E-score” value is -0.0611.

For CTGACACA, the “PBM E-score” value is -0.175.

Turning to ATGTTCAG, the “PBM E-score” value is -0.207.

Take ACAAGAGT: the “PBM E-score” value was -0.136.

For ATAAGAAG, the “PBM E-score” value was 0.116.
